The campaign covered roughly 5,400 compounds. About 190 (3.5%) showed an effect of 50% or more. Some of the results follow.
The compounds below were run on Vero-E6 (assay: primary screen, phospholipidosis by LipidTOX staining; higher = more effect of the substance). Conditions: 10 µM.
Procedure: To measure drug-induced PLD in Vero-E6 cells, we used the HCS LipidTOX Red Phospholipidosis Detection Reagent (Invitrogen, #H34351), which is non-toxic to cell growth and remains well retained after aldehyde fixation. In this setup, compounds (at 10 μM concentration) and controls (amiodarone: 10 μM concentration; DMSO: 0.1 v/v %) were added to clear-bottom, 384-well plates (PhenoPlate 384-well, black, optically clear flat bottom, tissue-culture treated, Revvity #6057302) using the Echo Liquid Handler (Labcyte).
For `O=C(NCCO[N+](=O)[O-])c1cccnc1`, the result_ITMP was 4.11%. With `CC(C)(Cc1ccc2ccccc2c1)NC[C@@H](O)COc1cccc(Cl)c1C#N` the result_ITMP was -10.6%. For `O=C(c1cn(Cc2cncn2Cc2ccc(Br)cc2)cc1-c1cccc2ccccc12)N1CCOCC1`, the result_ITMP was -0.05%. `CN(C)CCOc1ccc(/C(=C(/CCCl)c2ccccc2)c2ccccc2)cc1` showed a result_ITMP of 20.4%. Work on `CC(C(=O)O)c1ccc(N2Cc3ccccc3C2=O)cc1` (stereo not drawn) yielded a result_ITMP of -3.93%. `Cc1cc(Nc2ncnc3ccc(-c4ccc(CNCCS(C)(=O)=O)o4)cc23)ccc1Oc1ccn2ncnc2c1` gave a result_ITMP of 48.5%. In the case of `Cc1nc(C#Cc2ccnc(Cl)c2)c(C)n1-c1ccc(F)cc1`, the result_ITMP is reported as 0.4%. In the case of `Cc1ncc(NC(=O)c2ccc(CN3CCN(C)CC3)c(C(F)(F)F)c2)cc1Nc1nccc(-c2cccnc2)n1`, the result_ITMP is reported as 9.33%. Work on `COC1CCN(c2cccc(-c3cc(NC(C)=O)nc(-n4nc(C)cc4C)n3)n2)CC1` yielded a result_ITMP of 0.24%. Compound `Nc1ncnc2c1ncn2C1OC2COP(=O)([O-])OC2C1O` (stereo not drawn) has a result_ITMP of -10.8%. Work on `O=C(O)CCCCCCNC1c2ccccc2CCc2ccccc21` yielded a result_ITMP of 0.29%. Work on `Cc1cccc(COc2cccc(/C=C3\C(=O)NN(c4ccccc4)C3=O)c2)c1` yielded a result_ITMP of -0.83%. In the case of `Oc1ccc(OCc2ccccc2)cc1`, the result_ITMP is reported as -11.6%. Compound `N=C1NC(=O)N2CC12` (stereo not drawn) has a result_ITMP of -6.93%. `O=C(NCC(=O)N1CCCCC1)Nc1ccc2nnsc2c1` was tested, and the result_ITMP was -0.73%. In the case of `NC(=O)C[S@@](=O)C(c1ccccc1)c1ccccc1`, the result_ITMP is reported as 0.14%. For `CNC(=O)[C@H](Cc1c[nH]c2ccccc12)NC(=O)[C@@H](CC(=O)NO)CC(C)C`, the result_ITMP was -8.58%. In the case of `CCCCC[C@H](O)/C=C/[C@@H]1[C@@H](C/C=C\CCCC(=O)O)[C@@H](O)C[C@H]1O`, the result_ITMP is reported as 1.08%. Compound `CC(C)(Cc1c[nH]c2ccc(Cl)cc12)NCCOc1ccccc1OCC1CC1` has a result_ITMP of 48.5%. `Nc1nc2ccc(Cl)cc2c2nc(-c3ccco3)nn12` was tested, and the result_ITMP was 2.92%. `CCNC(=O)NS(=O)(=O)c1sc(CC(C)C)cc1-c1ccc(Cn2c(-c3ccccc3)nc(OC)c2C=O)cc1` showed a result_ITMP of -0.82%. Work on `CC1(C)CCC(C)(C)c2cc(Cn3cccn3)c(/C=C/c3ccc(C(=O)O)cc3)cc21` yielded a result_ITMP of -1.86%. For `CCC(C)N(C)C(=O)c1cc2ccccc2c(-c2ccccc2Cl)n1` (stereo not drawn), the result_ITMP was -9.34%. In the case of `Cc1cccc([C@H](C)c2cnc[nH]2)c1C`, the result_ITMP is reported as 2.46%. Work on `COc1cc2c(cc1C(F)(F)F)N(C(=O)Nc1cc(F)cc(-c3cccnc3)c1)CC2` yielded a result_ITMP of -2.05%. Compound `C#CC[C@H](c1nc2cc(Cl)ccc2c(=O)n1Nc1ccccc1)N(CCCN)C(=O)c1cccc(Cl)c1F` has a result_ITMP of 68.4%. With `CC(=O)C(=Cc1cc(O)c(O)c([N+](=O)[O-])c1)C(C)=O` the result_ITMP was -0.23%. Work on `C[C@@H]1CCN(C(=O)CC#N)C[C@@H]1N(C)c1ncnc2[nH]ccc12` yielded a result_ITMP of -5.28%. For `Cc1cc2c(F)c(Oc3ncnn4cc(OC[C@@H](C)OC(=O)[C@H](C)N)c(C)c34)ccc2[nH]1`, the result_ITMP was 2.28%. For `CO/N=C(\C(=O)N[C@@H]1C(=O)N2C(C(=O)[O-])=C(COC(C)=O)CS[C@H]12)c1csc(N)n1`, the result_ITMP was -7.3%. With `CC(NCCC(c1ccccc1)c1ccccc1)c1ccccc1` (stereo not drawn) the result_ITMP was 43.7%. In the case of `C[C@@H]1COCCN1c1cc(C2(S(C)(=O)=O)CC2)nc(-c2cccc3[nH]ccc23)n1`, the result_ITMP is reported as -0.84%. `CCOC(=O)Nc1cc(-c2ccc(C)c(NS(C)(=O)=O)c2)nn2c(C)nnc12` gave a result_ITMP of 22%. Compound `Cc1ccc(C[N+](C)(C)C)o1` has a result_ITMP of 0.45%. For `CS(=O)(=O)Nc1ccc2oc3c(OC(F)F)ccc(C(=O)Nc4c(Cl)cncc4Cl)c3c2c1`, the result_ITMP was -0.14%. In the case of `CCN(CC)CCc1nc(-c2ccccc2)no1`, the result_ITMP is reported as 3.95%. For `Cc1cc(-c2nncc3c(C(C)(C)C)c(OCc4ncnn4C)nn23)no1`, the result_ITMP was -1.71%. Work on `CN(C)C(=O)CCSC(SCCC(=O)[O-])c1cccc(/C=C/c2ccc3ccc(Cl)cc3n2)c1` (stereo not drawn) yielded a result_ITMP of -1.04%. `CCOc1c2c(c(OCC)c3ccccc13)C(=O)N(c1ccc(CC(=O)NS(=O)(=O)c3ccccc3)cc1)C2` was tested, and the result_ITMP was -1.28%. Work on `CNCC(O)c1ccc(OC(=O)C(C)(C)C)c(OC(=O)C(C)(C)C)c1` (stereo not drawn) yielded a result_ITMP of -4.47%. With `C/C(=N\NC(=S)NNC(=S)Nc1ccccc1Cl)c1ccccn1` the result_ITMP was -0.18%. Work on `Cc1nccc2c1[nH]c1ccccc12` yielded a result_ITMP of 1.05%. Work on `O=C(NCCO)c1cccc(-c2cc(Nc3ccc(OC(F)(F)F)cc3)ncn2)c1` yielded a result_ITMP of -2.64%. `CC1CCN(C(c2ccc(F)cc2)c2ccc(C(C)C(=O)O)cc2-c2ccc(C(F)(F)F)cc2)CC1` (stereo not drawn) was tested, and the result_ITMP was 4.63%. `O=C(CS(=O)Cc1ccco1)NC/C=C\COc1cc(CN2CCCCC2)ccn1` (stereo not drawn) gave a result_ITMP of -4.76%.

From publication PMC13083723 (Patterns, 2026)
